The results in this text go back to publication PMC11790891.

By UniProt entry, the sequences of proteins in these tests, tags left out. Where a name states a change or a piece, a line headed by the entry shows the natural chain unless it says otherwise.
UniProt Q14683: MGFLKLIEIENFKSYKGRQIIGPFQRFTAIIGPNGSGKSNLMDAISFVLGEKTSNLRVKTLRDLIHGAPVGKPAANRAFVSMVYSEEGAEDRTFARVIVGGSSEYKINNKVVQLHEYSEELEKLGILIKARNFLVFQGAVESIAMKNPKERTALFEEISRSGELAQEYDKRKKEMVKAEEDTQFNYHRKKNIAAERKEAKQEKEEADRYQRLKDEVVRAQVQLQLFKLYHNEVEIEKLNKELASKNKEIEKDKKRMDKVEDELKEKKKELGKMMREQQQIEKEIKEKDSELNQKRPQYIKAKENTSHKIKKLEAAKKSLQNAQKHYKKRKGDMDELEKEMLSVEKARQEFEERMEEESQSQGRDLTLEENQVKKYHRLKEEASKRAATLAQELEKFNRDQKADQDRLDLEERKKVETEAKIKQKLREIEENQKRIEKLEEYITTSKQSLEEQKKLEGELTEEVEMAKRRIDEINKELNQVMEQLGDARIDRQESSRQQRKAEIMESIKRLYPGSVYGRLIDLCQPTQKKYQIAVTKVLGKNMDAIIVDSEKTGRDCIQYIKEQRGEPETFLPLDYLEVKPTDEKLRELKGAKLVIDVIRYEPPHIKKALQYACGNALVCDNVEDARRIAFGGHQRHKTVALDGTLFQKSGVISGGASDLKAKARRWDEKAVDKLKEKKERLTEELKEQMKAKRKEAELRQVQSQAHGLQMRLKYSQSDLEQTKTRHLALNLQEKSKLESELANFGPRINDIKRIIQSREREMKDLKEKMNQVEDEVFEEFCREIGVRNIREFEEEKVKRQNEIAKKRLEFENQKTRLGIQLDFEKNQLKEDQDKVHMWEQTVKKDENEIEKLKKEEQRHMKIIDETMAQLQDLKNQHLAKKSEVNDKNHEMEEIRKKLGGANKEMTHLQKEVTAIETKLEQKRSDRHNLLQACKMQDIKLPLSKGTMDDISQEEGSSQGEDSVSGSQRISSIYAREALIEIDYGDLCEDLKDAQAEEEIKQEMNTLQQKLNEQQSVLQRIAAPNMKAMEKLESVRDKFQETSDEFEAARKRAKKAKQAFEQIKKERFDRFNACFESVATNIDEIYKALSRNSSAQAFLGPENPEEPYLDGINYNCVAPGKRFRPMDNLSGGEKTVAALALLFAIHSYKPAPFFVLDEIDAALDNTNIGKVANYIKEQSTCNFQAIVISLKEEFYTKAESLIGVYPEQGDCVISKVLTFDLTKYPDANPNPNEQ
UniProt Q9UQE7: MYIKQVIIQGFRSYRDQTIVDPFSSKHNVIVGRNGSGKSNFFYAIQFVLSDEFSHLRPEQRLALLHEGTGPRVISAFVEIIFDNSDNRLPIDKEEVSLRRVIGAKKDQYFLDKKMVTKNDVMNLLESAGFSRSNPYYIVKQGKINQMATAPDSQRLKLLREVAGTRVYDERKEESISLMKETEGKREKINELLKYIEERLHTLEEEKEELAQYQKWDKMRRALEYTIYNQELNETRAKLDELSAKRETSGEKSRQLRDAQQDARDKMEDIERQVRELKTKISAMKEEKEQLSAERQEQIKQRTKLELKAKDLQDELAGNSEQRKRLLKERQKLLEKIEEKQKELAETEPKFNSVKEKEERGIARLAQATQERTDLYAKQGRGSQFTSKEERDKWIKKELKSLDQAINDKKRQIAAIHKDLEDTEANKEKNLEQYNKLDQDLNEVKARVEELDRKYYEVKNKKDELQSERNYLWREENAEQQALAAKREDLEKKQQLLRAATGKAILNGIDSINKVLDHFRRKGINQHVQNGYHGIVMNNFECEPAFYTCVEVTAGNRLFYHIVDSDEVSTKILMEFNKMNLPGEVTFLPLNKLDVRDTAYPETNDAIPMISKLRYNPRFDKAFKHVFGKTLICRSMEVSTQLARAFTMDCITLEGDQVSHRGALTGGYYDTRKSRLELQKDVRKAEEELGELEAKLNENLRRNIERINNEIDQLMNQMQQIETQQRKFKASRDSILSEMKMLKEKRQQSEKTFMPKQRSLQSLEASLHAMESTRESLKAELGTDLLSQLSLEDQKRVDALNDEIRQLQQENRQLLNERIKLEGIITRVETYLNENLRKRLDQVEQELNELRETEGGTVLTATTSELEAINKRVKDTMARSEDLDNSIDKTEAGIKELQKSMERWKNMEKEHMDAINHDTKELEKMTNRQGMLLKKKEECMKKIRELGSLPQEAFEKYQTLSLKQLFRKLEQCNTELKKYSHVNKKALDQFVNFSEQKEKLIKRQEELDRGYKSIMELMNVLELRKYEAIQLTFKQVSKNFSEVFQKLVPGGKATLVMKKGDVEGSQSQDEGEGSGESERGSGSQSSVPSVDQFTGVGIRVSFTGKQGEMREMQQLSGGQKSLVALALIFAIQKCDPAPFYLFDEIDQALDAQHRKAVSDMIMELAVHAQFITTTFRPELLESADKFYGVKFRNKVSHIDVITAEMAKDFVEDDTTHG
UniProt O60216: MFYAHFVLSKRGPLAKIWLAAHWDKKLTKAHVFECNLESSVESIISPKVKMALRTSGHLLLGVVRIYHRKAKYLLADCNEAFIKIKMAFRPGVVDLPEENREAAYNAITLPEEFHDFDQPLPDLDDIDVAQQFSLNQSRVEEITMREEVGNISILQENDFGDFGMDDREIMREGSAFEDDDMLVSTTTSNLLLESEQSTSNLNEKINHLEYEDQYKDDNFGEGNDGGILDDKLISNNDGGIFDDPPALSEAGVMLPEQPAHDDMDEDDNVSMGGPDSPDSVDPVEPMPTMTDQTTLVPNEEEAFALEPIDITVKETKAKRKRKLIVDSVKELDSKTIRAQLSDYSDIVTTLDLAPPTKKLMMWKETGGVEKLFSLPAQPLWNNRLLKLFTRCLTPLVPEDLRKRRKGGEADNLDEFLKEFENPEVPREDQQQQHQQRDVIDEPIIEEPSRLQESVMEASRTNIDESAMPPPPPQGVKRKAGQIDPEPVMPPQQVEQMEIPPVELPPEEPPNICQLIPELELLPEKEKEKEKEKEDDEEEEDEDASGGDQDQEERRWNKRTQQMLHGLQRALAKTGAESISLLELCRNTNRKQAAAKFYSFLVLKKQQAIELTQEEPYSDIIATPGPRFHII
UniProt Q8WVM7: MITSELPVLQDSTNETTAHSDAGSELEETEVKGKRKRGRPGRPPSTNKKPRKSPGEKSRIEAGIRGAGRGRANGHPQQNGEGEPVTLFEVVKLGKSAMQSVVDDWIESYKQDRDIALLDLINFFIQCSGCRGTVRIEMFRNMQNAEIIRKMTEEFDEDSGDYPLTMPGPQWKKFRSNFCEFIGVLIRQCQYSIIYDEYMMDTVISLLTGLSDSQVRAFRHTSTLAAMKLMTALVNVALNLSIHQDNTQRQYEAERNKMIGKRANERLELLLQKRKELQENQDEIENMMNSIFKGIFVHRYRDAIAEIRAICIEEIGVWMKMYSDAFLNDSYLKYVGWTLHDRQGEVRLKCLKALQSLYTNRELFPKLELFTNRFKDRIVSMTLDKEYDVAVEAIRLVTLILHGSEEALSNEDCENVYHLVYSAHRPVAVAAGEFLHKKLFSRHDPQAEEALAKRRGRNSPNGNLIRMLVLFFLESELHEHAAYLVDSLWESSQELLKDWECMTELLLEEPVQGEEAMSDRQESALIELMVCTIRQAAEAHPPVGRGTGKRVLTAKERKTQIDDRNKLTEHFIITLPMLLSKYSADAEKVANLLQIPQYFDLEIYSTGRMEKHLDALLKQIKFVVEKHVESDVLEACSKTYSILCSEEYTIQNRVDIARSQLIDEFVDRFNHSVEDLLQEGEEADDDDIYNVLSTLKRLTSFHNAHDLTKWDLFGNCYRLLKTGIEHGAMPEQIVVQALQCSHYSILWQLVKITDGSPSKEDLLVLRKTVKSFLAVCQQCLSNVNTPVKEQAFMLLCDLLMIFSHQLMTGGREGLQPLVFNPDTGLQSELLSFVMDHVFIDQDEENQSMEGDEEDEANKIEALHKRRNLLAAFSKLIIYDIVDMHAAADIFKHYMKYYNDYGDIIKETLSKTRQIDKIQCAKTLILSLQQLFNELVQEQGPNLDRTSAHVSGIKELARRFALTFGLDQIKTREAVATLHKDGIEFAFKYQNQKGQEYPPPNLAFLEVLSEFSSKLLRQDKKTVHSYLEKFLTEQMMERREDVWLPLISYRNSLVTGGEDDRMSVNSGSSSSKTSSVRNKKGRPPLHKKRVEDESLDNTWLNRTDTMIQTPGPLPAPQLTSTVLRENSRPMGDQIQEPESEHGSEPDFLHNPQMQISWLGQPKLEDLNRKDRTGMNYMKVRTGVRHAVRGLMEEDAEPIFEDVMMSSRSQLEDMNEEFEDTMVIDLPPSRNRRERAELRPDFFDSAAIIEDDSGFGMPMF
UniProt O75151: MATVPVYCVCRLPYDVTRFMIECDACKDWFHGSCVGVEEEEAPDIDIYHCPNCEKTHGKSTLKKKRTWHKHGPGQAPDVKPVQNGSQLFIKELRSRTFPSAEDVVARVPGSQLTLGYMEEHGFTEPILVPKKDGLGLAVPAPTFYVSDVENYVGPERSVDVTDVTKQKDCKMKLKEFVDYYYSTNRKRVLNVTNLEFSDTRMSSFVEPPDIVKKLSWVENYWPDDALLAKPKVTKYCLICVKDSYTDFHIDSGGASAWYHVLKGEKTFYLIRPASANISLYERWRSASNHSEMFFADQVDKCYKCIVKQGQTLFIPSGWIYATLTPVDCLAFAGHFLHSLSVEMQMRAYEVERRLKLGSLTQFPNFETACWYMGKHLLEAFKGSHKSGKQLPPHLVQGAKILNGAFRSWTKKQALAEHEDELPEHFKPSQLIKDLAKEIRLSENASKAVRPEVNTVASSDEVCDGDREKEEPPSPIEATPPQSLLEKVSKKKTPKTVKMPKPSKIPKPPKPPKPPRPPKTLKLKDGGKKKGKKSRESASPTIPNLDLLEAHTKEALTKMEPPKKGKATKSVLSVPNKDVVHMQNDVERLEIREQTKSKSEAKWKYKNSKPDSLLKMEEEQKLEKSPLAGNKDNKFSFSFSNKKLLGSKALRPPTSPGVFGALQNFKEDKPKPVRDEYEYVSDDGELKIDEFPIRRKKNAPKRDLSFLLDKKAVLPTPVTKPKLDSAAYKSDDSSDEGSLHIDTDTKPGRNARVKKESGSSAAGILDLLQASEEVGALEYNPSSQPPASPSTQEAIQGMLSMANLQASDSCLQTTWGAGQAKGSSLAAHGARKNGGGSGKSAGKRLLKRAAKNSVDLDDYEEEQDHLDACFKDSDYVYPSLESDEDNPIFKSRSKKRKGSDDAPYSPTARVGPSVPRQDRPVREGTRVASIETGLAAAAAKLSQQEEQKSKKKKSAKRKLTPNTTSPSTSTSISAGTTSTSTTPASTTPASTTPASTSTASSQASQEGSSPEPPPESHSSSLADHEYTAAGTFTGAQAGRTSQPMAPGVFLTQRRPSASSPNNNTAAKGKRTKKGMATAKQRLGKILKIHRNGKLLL

Common to all, as to assay: pull-down; in vitro binding assay: cohesin complexes held on FLAG beads mixed with purified Phf2 at 4 °C for 1 h in 35 mM Hepes pH 7.5, 100 mM NaCl, 5% glycerol, 0.01% Tween; three washes; eluted with FLAG peptide; silver staining or Western blot; both purified
For orientation: Immunoblotting shows a protein as a band on a membrane.

The target in assay [1] is human recombinant cohesin SMC1-SMC3 dimer (human) (UniProt Q14683+Q9UQE7).
Assay [2] has as its target human recombinant cohesin tetramer with STAG1 (SMC1, SMC3, SCC1, STAG1) (human) (UniProt Q14683+Q9UQE7+O60216+Q8WVM7).
In assay [3] the target is human recombinant cohesin tetramer with STAG2 (SMC1, SMC3, SCC1, STAG2) (human) (UniProt Q14683+Q9UQE7+O60216+Q8N3U4).
Assay [4] has as its target human recombinant cohesin trimer composed of SMC1, SMC3 and SCC1 (human) (UniProt Q14683+Q9UQE7+O60216).

These are yes or no findings as the source states them, for the method shown. Some results given as binding are weak or reduced against the parent protein; the word gives no strength.

With “His-tagged full-length Phf2 (from UniProt O75151 1-1096)”, the binding entry in assay [1] was “no binding”; in assay [2] it was “binds”; in assay [3], “binds”; in assay [4] it was “binds”.
